# Data reported in PubChem BioAssay AID686979 (National Center for Advancing Translational Sciences (NCATS), 2013).
# Among all 420,000 compounds or so, about 50,000 (12%) were called active. The shares of active, inactive and inconclusive entries below differ from those in the screen. Calls follow the shape of the dose curve; as a rule, active = well fitted inhibition curve with a large enough effect; inconclusive = small, poorly fitted or top-dose-only effect; inactive = flat fitted curve, though single readings scatter. No potency is given beside an inconclusive call; the fits are too rough.
# Assay: qHTS for Inhibitors of human tyrosyl-DNA phosphodiesterase 1 (TDP1): qHTS in cells in presence of CPT; also: nearly all actives have a fitted effect of over 55% in size
# Details: chicken DT40 Tdp1-/-;hTDP1 cells + 20 nM CPT, ATP luminescence, 48 h; series mostly up to 46.2 µM
# How it was run: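 Cell growth measured by CellTiter-Glo luminescence after a minimum 48 h, 37 C compound exposure with 20 nM CPT in Tdp1-knockout DT40 cells stably expressing hTDP1, seeded 400/well; qHTS titration format.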
# Potency is read from the fitted curve at half-maximal effect; tags tell the direction and shape of the fitted curve.
row,SMILES,Potency
1,Cc1cc(NC(=O)CSc2nnnn2-c2ccccc2C)no1,"inconclusive [inhibitor, single point]"
2,CN(C(=O)CSc1nc2ccc(NC(=O)c3cccs3)cc2s1)c1ccccc1,active: 23.1 µM
3,CN(C(=S)Nc1ccc(Oc2ccccc2)cc1)c1ccc(O)cc1,"inconclusive [inhibitor, single point]"
4,Nc1nc(-c2cccc(NS(=O)(=O)c3ccccc3)c2)cs1,"inconclusive [inhibitor, single point]"
5,COc1ccc(-n2c(=O)c3c4c(sc3n(CC(=O)C(C)(C)C)c2=O)CCCC4)c(OC)c1,active: 14.6 µM
6,O=C(Nc1cccc(-c2nc3ccccc3o2)c1)c1cccnc1,"inconclusive [inhibitor, single point]"
7,Cc1ccc(CN2C(=O)CN(C3CCCCCC3)C(=O)C2c2ccc(F)cc2)cc1 (stereo unspecified),active: 18.4 µM
8,Cc1ccc(OCC(=O)Nc2ccc(S(=O)(=O)Nc3ccccn3)cc2)c(C)c1,"inconclusive [inhibitor, single point]"
9,CCCCCCc1cc2cc(-c3nnc(-c4ccccc4OC)o3)c(=O)oc2cc1O,"inconclusive [inhibitor, single point]"
10,COc1ccc(OC)c(NC(=O)c2cc3c(Cl)nc4ccccc4c3s2)c1,"inconclusive [inhibitor, single point]"
11,CCN(CCCNC(=O)COc1cc(=O)n(C)c2ccccc12)c1ccccc1,"inconclusive [inhibitor, single point]"
12,COc1ccc(C#Cc2ccc3c(c2)c(=O)c2ccccc2n3C)cc1,"inconclusive [inhibitor, single point]"
13,O=C(CSc1nc2ccccc2s1)c1ccc(O)cc1O,"inconclusive [inhibitor, single point]"
14,Cc1ccc(C)c(NS(=O)(=O)c2cc(C(=O)NCCC3=CCCCC3)ccc2C)c1,"inconclusive [inhibitor, single point]"
15,CCN(CC(=O)Nc1ccc2c(c1)OCCO2)C(=O)c1ccc([N+](=O)[O-])s1,"inconclusive [inhibitor, single point]"
16,CC(C)Oc1ccccc1/C=N/Nc1ccccc1[N+](=O)[O-],"inconclusive [inhibitor, single point]"
17,COc1ccc(C(=O)Nc2nc(-c3nnn(-c4cc(OC)ccc4OC)c3C)ns2)cc1,active: 16.4 µM
18,CCc1nc2ccc(C(=O)Nc3ccc(OC)c(OC)c3)cn2c1N(CCC(C)C)CCN(C)C,"inconclusive [inhibitor, single point]"
19,Cn1c2c(c3ccccc31)CCN=C2c1ccccc1,"inconclusive [inhibitor, single point]"
20,CCC1Oc2ccccc2N(CC(=O)NCc2ccco2)C1=O (stereo unspecified),inactive
21,CCCC[C@H]1COCCS(=O)(=O)N1Cc1cccc(Cl)c1,"inconclusive [inhibitor, single point]"
22,O=C(NC1CCCN(Cc2ccc(Cl)cc2)C1)c1cccc(F)c1 (stereo unspecified),"inconclusive [inhibitor, single point]"
23,Cc1cc(=O)[nH]c(Nc2cccc(Cl)c2C)n1,inactive

row,SMILES,Potency
1,COc1ccc(-c2nnc(CSc3nc4ccccc4c(=O)n3CC(C)C)o2)cc1OC,"inconclusive [inhibitor, single point]"
2,O=C(Cn1nnc(-c2cccc(C(F)(F)F)c2)n1)NCc1ccc(F)cc1,inactive
3,CCOc1ccccc1-c1ccc(C(=O)NCc2ccc(Cl)cc2)o1,"inconclusive [inhibitor, single point]"
4,COc1ccc(-c2c(-c3ccccc3OC)oc3ccccc23)cn1,"inconclusive [inhibitor, partial curve, poor fit]"
5,CN(C)c1ccc(-c2nc(N(C)Cc3ccco3)c3ccccc3n2)cc1,active: 29.1 µM
6,COc1ccccc1Cc1c(-c2cccc(Cl)c2)nc2c(C)cc(Br)cn12,"inconclusive [inhibitor, single point]"
7,COc1cc(/C=C/C(=O)OCc2csc(CC(=O)Nc3ccc(C)cc3)n2)ccc1OCC#N,inactive
8,Cc1ccc(NC(=O)c2cccc(S(=O)(=O)N3CCN(c4ccc(F)cc4)CC3)c2)nc1,active: 14.6 µM
9,O=c1c2oc3ccccc3c2ncn1Cc1ccc(Cl)cc1,inactive
10,CCOC(=O)C1=C(C)N=C2c3ccccc3C(=O)C2C1c1ccccc1 (stereo unspecified),"inconclusive [inhibitor, single point]"
11,Cc1nc2c(ncn2-c2ccccc2)c(=O)n1NC(=O)CN1CCCCC1,inactive
12,CN1CCN(c2ccc([N+](=O)[O-])cc2C(=O)c2ccccc2)CC1,"inconclusive [inhibitor, single point]"
13,O=C(O)C(O)c1ccccc1 (stereo unspecified),inactive
14,CC(C)n1nc(C(=O)Nc2nnc(SCc3c(Cl)cccc3Cl)s2)c2ccccc2c1=O,active: 10.3 µM
15,Cn1c(=O)c2c(nc(Br)n2CC(=O)c2cccs2)n(C)c1=O,"inconclusive [inhibitor, partial curve, poor fit]"
16,Cn1c(SCC(=O)NNC(=O)Cc2ccccc2)nc2ccccc2c1=O,active: 20.6 µM
17,Cc1ccc(NC(=O)C(=O)NCC(c2ccc3c(c2)OCO3)N2CCN(C)CC2)cc1C (stereo unspecified),active: 16.4 µM
18,O=[N+]([O-])c1cc(S(=O)(=O)N2CCCC2)ccc1N/N=C/c1cccnc1,inactive
19,COc1ccc(/C=C2\SC(N3CCCCC3)=NC2=O)cc1,active: 11.6 µM
20,CCc1nc2ccc(C(=O)N3CCN(C(=O)c4ccco4)CC3)cn2c1N(C)CCC(C)C,"inconclusive [inhibitor, single point]"
21,Cc1cc(NC(=O)c2ccc3[nH]c(C)c(C)c3c2)ccn1,active: 20.6 µM
22,COc1ccc2c(c1)[C@H]1[C@H](CO2)[C@H](c2ccccc2)[C@]2(C)C(=O)Nc3ccc(Cl)cc3C(=O)N12,active: 18.4 µM
23,C=CCNC(=S)NNC(=O)Cn1c(-c2ccccc2)cc(=O)n2ncnc12,inactive
